# Test results published in ChEMBL document CHEMBL1201862, “PubChem BioAssay data set” (2004).
# System: NCI-H322M
# Experiment: NCI-60 cell line screen, 48 h
row,SMILES,GI50
1,O=C(O)CS(=O)(=O)C(c1ccccc1)c1ccccc1,inactive: > 100 µM
2,COC(=O)c1cc(O)nc(O)n1,inactive: > 100 µM
3,CCCc1cn2c(/C=N/NC(=N)N)c(-c3cccc([N+](=O)[O-])c3)nc2s1,inactive: 1.36 µM
4,COc1cc(OC)c(OC)cc1/C=N/NC(=O)N/N=C/c1cc(OC)c(OC)cc1OC,inactive: > 100 µM
5,CCOC(=O)C1=C(O)C(=O)c2cc(C)ccc2C1=O,inactive: 31.8 µM
6,Cc1c(-c2ccccn2)ccc2ccccc12,inactive: 90.4 µM
7,N=C(N)NS(=O)(=O)c1ccc(NCc2cccc3c(=O)c4ccc(Cl)cc4oc23)cc1,inactive: > 20.9 µM
8,CCC12CC(c3ccccc3)C(C(=O)N1)C(=O)N2 (centres undefined),inactive: > 100 µM
9,Cc1c(Cl)ccc2c1NC(=O)C2(O)CC(=O)c1cccc2ccccc12 (centres undefined),inactive: > 100 µM
10,CC(=O)OC/C=C(/CCl)CCC(Br)C(C)(C)Br.CC(=O)OC/C=C(\CCl)CCC(Br)C(C)(C)Br (centres undefined),inactive: > 10 µM
11,N#CC(/C(=N/NC(=O)C(=O)NN)C(=O)Nc1nc([N+](=O)[O-])cs1)c1ccc(Cl)cc1 (centres undefined),inactive: > 100 µM
12,Cc1cc(C)n(CN(Cn2nc(C)cc2C)c2ccc(N(Cn3nc(C)cc3C)Cn3nc(C)cc3C)cc2)n1,inactive: 22.5 µM
13,COC(=O)c1nc(-c2nc(CCNC(=O)OC(C)(C)C)sc2Cl)sc1Cl,inactive: > 100 µM
14,CC(C)(CCCCC(C)(C)NCC1COc2ccccc2O1)NCC1COc2ccccc2O1 (centres undefined),inactive: > 10 µM
15,COc1ccccc1NC(=S)Nc1cccc(C)n1,inactive: > 100 µM
16,COc1cc2[nH]c(=O)[nH]c2c2c(C)c[nH]c12,inactive: > 100 µM
17,Cn1/c(=N\S(=O)(=O)c2ccccc2)[nH]c2ccccc21,inactive: > 100 µM
18,CC1=C(C(=O)Nc2ccccc2)C(c2ccc(N(C)C)cc2)C(C(=O)Nc2ccccc2)=C(C)N1,inactive: 17.5 µM
19,O=C1C(Cl)=C(N2CCN(C3=C(Cl)C(=O)c4ccccc4C3=O)CC2)C(=O)c2ccccc21,inactive: 12.6 µM
20,CCCCC(=O)c1ccc2ccccc2c1O,inactive: > 100 µM
21,Clc1cccc(C2SCc3nc4ccccc4n32)c1 (centres undefined),inactive: 45.5 µM
22,O=C(Nc1ccccc1)c1cc(S(=O)(=O)N2CCNC2=O)c(S)cc1Cl,inactive: > 100 µM
23,CCOC(=O)C(Cc1c2ccccc2cc2ccccc12)(NC(C)=O)C(=O)OCC,inactive: > 100 µM

row,SMILES,GI50
1,Cc1cccc(C)c1NC(=O)/C(Cl)=C(/Cl)C(=O)O,inactive: 34.8 µM
2,C/C=C/COc1cc(NC(=S)c2ccoc2C)ccc1OC,inactive: > 100 µM
3,COc1ccc(OC)c(NC(=O)C(=O)CC(=O)c2sc(-n3nc(-c4ccccc4)cc3-c3ccccc3)nc2C)c1,inactive: > 100 µM
4,Cn1c2ccccc2c2c3c(=O)[nH][nH]c(=O)c3c3c4ccccc4n(C)c3c21,inactive: > 100 µM
5,C=C/C(C)=C/[C@H](C)C(=O)C[C@H](O)CC1CC(=O)NC(=O)C1,inactive: 33.9 µM
6,O=C(O)c1cc([N+](=O)[O-])cc2c(=O)c3cnccc3[nH]c12,inactive: > 100 µM
7,CCOC(=O)C1C(c2ccc3c(c2)OCO3)c2c(n[nH]c2O)CC1(C)O (centres undefined),inactive: > 100 µM
8,O=c1cc(-c2ccccc2)[nH]c2ccc(N3CCOCC3)cc12,active: 0.031 µM
9,CCOC(=O)N1CCNCCN(C(=O)OCC)CCNCC1,inactive: > 100 µM
10,O=C1[C@@H]2C(c3ccccc3[N+](=O)[O-])=[N+](c3ccccc3)O[C@@H]2C(=O)N1c1ccc(Cc2ccc(N3C(=O)[C@H]4C(c5ccccc5[N+](=O)[O-])=[N+](c5ccccc5)O[C@H]4C3=O)cc2)cc1,inactive: > 100 µM
11,CCOc1ncn(-c2ccc(NC(=S)Nc3ncccn3)cc2)n1,inactive: > 100 µM
12,COC(=O)C1Cc2c([nH]c3ccccc23)C(c2cccc(O)c2)N1 (centres undefined),inactive: 27.8 µM
13,CCOC(=O)c1csc(NC(=O)CN2CCCC2)n1,inactive: > 100 µM
14,C1CCN(CCC2CCCCN2)CC1 (centres undefined),inactive: > 100 µM
15,CC(C)[Si]1(C(C)C)OCC2OC(n3ccc(=O)[nH]c3=O)C([Se]c3ccccc3)C2O[Si](C(C)C)(C(C)C)O1 (centres undefined),inactive: 13.6 µM
16,CC(NC1=CC(=O)c2ncccc2C1=O)C(O)c1ccccc1 (centres undefined),inactive: 5.79 µM
17,Cc1ccc(Cc2nnc(S)[nH]2)cc1,inactive: 97.9 µM
18,COc1ccc(/C(=N/N=c2\[nH]c3ccccc3n2Cc2ccccc2)C(=O)O)cc1,inactive: 16.6 µM
19,Nc1nc(SCc2ccccc2Cl)c2[nH]cnc2n1,inactive: > 100 µM
20,Cc1cc(C)c(C(=O)C(C)C(c2ccccc2)c2ccc(Cl)cc2)c(C)c1 (centres undefined),inactive: > 100 µM
21,Cc1ccc(Nc2cc(=O)[nH]c(=O)[nH]2)cc1CS,inactive: > 100 µM
22,O=C1C=CC(=O)c2c(O)c(N(CCCl)CCCl)c(Cl)c(O)c21,inactive: > 10 µM
23,Cn1ccnc1CCc1c(Cl)cccc1Cl,inactive: > 100 µM

row,SMILES,GI50
1,COC(=O)C12CC3CC(C1)CC(C(=O)OC)(C3)C2,inactive: > 100 µM
2,CN1CCN([C@H]2C[C@H]3[C@@H]4CC=C5C[C@@H](N6CCCC6)CC[C@]5(C)[C@H]4CC[C@]3(C)[C@H]2O)CC1,inactive: 72.3 µM
3,O=C1C=C2CCCC2C(C(=O)O)(C(=O)O)C1 (centres undefined),inactive: > 100 µM
4,N=C(N)NS(=O)(=O)c1ccc(NC(=O)c2cccc3c(Nc4ccc(S(N)(=O)=O)cc4)c4ccccc4nc23)cc1,inactive: > 100 µM
5,CCOC(=O)C1S/C(=N\c2ccc(OC)c(OC)c2)N=C1C (centres undefined),inactive: 38.5 µM
6,COC(=O)C(=O)C(C(=O)OC)C(=O)C(=O)Nc1ccccc1C(N)=O (centres undefined),inactive: > 100 µM
7,COc1ccc(/C(C=O)=C(\Cl)c2ccc(OC)c(OC)c2)cc1,inactive: > 100 µM
8,O=C(O)/C(=C/c1ccccc1[N+](=O)[O-])c1cccs1,inactive: > 100 µM
9,O=c1c2ccccc2c2c3c1cccc3c1cccc3c(=O)c4ccccc4c2c31,inactive: > 100 µM
10,C[C@H]1[C@H](C)CC[C@]2(C(=O)OC3OC(CO)C(O)C(O)C3O)CC[C@]3(C)C(=CC[C@@H]4[C@@]5(C)C[C@@H](O)[C@@H]6OC(=O)c7cc(O)c(O)c(O)c7-c7c(cc(O)c(O)c7O)C(=O)OC[C@@]6(CO)[C@@H]5CC[C@]43C)[C@H]12 (some centres undefined),inactive: > 100 µM
11,Cc1cn(C2CC(N=[N+]=[N-])C(CO)O2)c(=O)n(CCCCO)c1=O (centres undefined),inactive: > 100 µM
12,Cn1c(=O)n(-c2c3ccccc3c(Cl)c3ccccc23)n(C(C)(C)C)c1=O,inactive: > 100 µM
13,CCNC(=O)COc1ccc(Br)cc1Br,inactive: > 100 µM
14,O=C(c1cccnc1)N1N=C(c2ccc(Cl)cc2)CC1(O)c1cc(F)c(Cl)cc1Cl (centres undefined),inactive: 31.3 µM
15,COc1cc(C(=O)CC2OC(=O)C(Cl)=C2Cl)ccc1Cl (centres undefined),inactive: > 100 µM
16,OCCC1(O)CCC(O)CC1 (centres undefined),inactive: > 100 µM
17,O=C1Nc2cc([N+](=O)[O-])ccc2N/C1=C/C(=O)c1ccc(Cl)cc1,inactive: 14.2 µM
18,Cn1c(=O)c2c(nc3[nH]c(=O)c(Br)cn32)n(C)c1=O,inactive: > 100 µM
19,C=C1C(=O)OC2C1C(OC(=O)/C(=C/C)COC(C)=O)CC1(CO1)C1C(OC(=O)/C(=C/C)CO)C=C(C)C21 (centres undefined),inactive: 5.31 µM
20,COc1cc2cc3c4c(cc(OC)c(OC)c4c2cc1OC)CCN3C(=O)CCC(=O)NCCCN(C)C,inactive: 77.6 µM
21,COC(=O)C1C/C(=C/N(C)C)C(=S)N1 (centres undefined),inactive: 27.2 µM
22,CC(C)(C)OC(=O)N1CCC[C@H]1CSC[C@@H]1CCCN1C(=O)OC(C)(C)C,inactive: 67.9 µM
23,COC12C=CC(C=C1C#N)CC2.COC12C=CC(CC1)CC2=O (centres undefined),inactive: > 100 µM

row,SMILES,GI50
1,CC(=O)Nc1ccc(CNc2cc(=O)n(C)c(=O)[nH]2)cc1,inactive: > 100 µM
2,Nc1c(C(=O)O)nnc2cc(Cl)ccc12,inactive: > 100 µM
3,COC(=O)C1=C(C)NC(C)=C(C(=O)OC)C1c1nc2sccn2c1[N+](=O)[O-],inactive: > 100 µM
4,C1=CN2C[n+]3cccc(OCc4ccccc4)c3N=C2C(OCc2ccccc2)=C1,inactive: 58.2 µM
5,O=C(NC(Cc1c[nH]c2ccccc12)C(=O)O)/C(=C/c1ccccc1O)NC(=O)c1ccccc1 (centres undefined),inactive: 36.9 µM
6,Cn1c(-c2ccccc2)cc2c3ccsc3c3ccsc3c21,inactive: > 100 µM
7,CCc1cc(Cc2cc(CC)c(NC(=O)C3=CC(=O)CC(c4ccc(OC)cc4)O3)c(CC)c2Cl)c(Cl)c(CC)c1NC(=O)C1=CC(=O)CC(c2ccc(OC)cc2)O1 (centres undefined),inactive: 25.9 µM
8,CON(C)C(=O)[C@H]1C[C@@]1(C)CO,inactive: > 100 µM
9,CCN(CC)CCCNc1ccc([N+](=O)[O-])c2nc3ccc(OC)cc3c(N)c12,inactive: 1.4 µM
10,Cn1c(=O)c2c(nc3n2CCC(=O)N3)n(C)c1=O,inactive: > 100 µM
11,c1ccc(/N=c2/sc3ccccc3s/c2=N/c2ccccc2)cc1,inactive: 3.51 µM
12,COC(=O)CC[C@@H](NC(=O)C(C)NC(=O)COC1C(O)C(COC(=O)CCCCCCCCCCNC(=O)c2ccc([N+](=O)[O-])c3[nH]c4cc(Br)ccc4c(=O)c23)OC(OCc2ccccc2)C1NC(C)=O)C(N)=O (some centres undefined),inactive: > 100 µM
13,COC1=CCC2=C(CCN(C(=O)C3CCC3)C2Cc2ccc(OC)c(O)c2)C1 (centres undefined),inactive: 16.5 µM
14,O=C(/C=C/c1ccc(O)c(O)c1)OCCOC(=O)/C=C/c1ccc(O)c(O)c1,inactive: 27.5 µM
15,Cc1ccc(-n2c3nc(=O)n(C)c(=O)c-3nc3ccccc32)cc1,inactive: 16.3 µM
16,O=Nc1c(-c2c(O)[nH]c3ccc(I)cc23)[nH]c2ccccc12,inactive: 4.03 µM
17,CC(=O)O[C@H](C[C@@H](C)[C@H]1C(=O)[C@H](O)[C@@]2(C)C3CC[C@H]4C(C)(C)[C@@H](OC5OCC(O)C(O)C5O)CC[C@@]45C[C@@]35CC[C@]12C)[C@@H]1OC1(C)C (some centres undefined),inactive: 19.6 µM
18,CCOC(=O)C1(C#N)CC1,inactive: > 100 µM
19,COc1ccc(-c2cc(=O)c3c(O)c(O)c(OC)cc3o2)cc1O,inactive: > 100 µM
20,COc1cc(/C=C/c2ccc(Br)cc2)cc(OC)c1OC,inactive: 20 µM

#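 Method: 48-hour compound exposure of cells in 96-well plates, five concentrations, linear interpolation of endpoints. GI50 is the concentration that inhibits growth by half.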 The source made the active and inactive calls. No stated cut-off is given here; in the data, active = GI50 up to about 1.1 µM and inactive = higher.
